# According to the supplement of paper PMC6746778:
# This is one part of the list. Many values rest on one well or one pass, so single values are uncertain.
# How the values were obtained:
# Experiment in all cases: proliferation Z-score within cell line (SRB, relative to all inhibitors screened on that line); triple-negative breast cancer lines and a kinase inhibitor library; SRB is the sulforhodamine B protein stain; higher = less growth inhibition (more resistant)
# Conditions in all cases: concentration: 1 µM; 4 days
# Bt20 = test system: Bt20
# Bt549 = test system: Bt549
# HCC1143 = test system: HCC1143
# HCC1806 = test system: HCC1806
# HCC1937 = test system: HCC1937
# HCC38 = test system: HCC38
# HCC70 = test system: HCC70
# Hs578T = test system: Hs578T
# MDA-MB-231 = test system: MDA-MB-231
# MDA-MB-435s = test system: MDA-MB-435s
# MDA-MB-436 = test system: MDA-MB-436
# MDA-MB-453 = test system: MDA-MB-453
# MDA-MB-468 = test system: MDA-MB-468
# SKBR7 = test system: SKBR7
# SUM1315MO2 = test system: SUM1315MO2
# SUM149PT = test system: SUM149PT
# SUM159PT = test system: SUM159PT
# SUM185PE = test system: SUM185PE
# SUM229PE = test system: SUM229PE
# SUM52PE = test system: SUM52PE
# 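Note: Single-dose primary screen of a 378-member kinase inhibitor library in 96-well plates, with growth read as absorbance of protein-bound SRB dye after TCA fixation.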
Structure (SMILES),proliferation Z-score within cell line (Bt20),proliferation Z-score within cell line (Bt549),proliferation Z-score within cell line (HCC1143),proliferation Z-score within cell line (HCC1806),proliferation Z-score within cell line (HCC1937),proliferation Z-score within cell line (HCC38),proliferation Z-score within cell line (HCC70),proliferation Z-score within cell line (Hs578T),proliferation Z-score within cell line (MDA-MB-231),proliferation Z-score within cell line (MDA-MB-435s),proliferation Z-score within cell line (MDA-MB-436),proliferation Z-score within cell line (MDA-MB-453),proliferation Z-score within cell line (MDA-MB-468),proliferation Z-score within cell line (SKBR7),proliferation Z-score within cell line (SUM1315MO2),proliferation Z-score within cell line (SUM149PT),proliferation Z-score within cell line (SUM159PT),proliferation Z-score within cell line (SUM185PE),proliferation Z-score within cell line (SUM229PE),proliferation Z-score within cell line (SUM52PE)
"Cc1cc(Nc2cc(N3CCN(C)CC3)nc(Sc3ccc(NC(=O)C4CC4)cc3)n2)n[nH]1 [VX-680 (Tozasertib, MK-0457)]",-1.28,-1.02,0.707,-0.366,0.815,-1.14,0.72,-1.15,-1.47,-1.5,0.364,-0.657,-1.74,-0.989,-0.5,-0.449,0.551,-0.619,-1.13,-1.08
CC1(COc2ccc3c(c2)ncn3-c2ccc3cccc(N4CCC(N)CC4)c3n2)COC1,1.07,0.47,0.355,0.952,0.717,0.382,0.726,0.482,0.507,0.629,0.452,0.292,0.294,-0.396,0.612,0.857,0.336,2.1,0.378,0.932
CS(=O)(=O)c1ccc(-c2cnc(N)c(C(=O)Nc3ccccc3)n2)cc1,0.935,0.259,0.515,0.411,0.657,0.417,0.554,0.529,0.761,0.734,0.713,0.373,0.321,0.457,1.04,0.966,0.399,0.57,0.849,0.974
COc1cc(OC)c(/C=C/S(=O)(=O)Cc2ccc(OC)c(NCC(=O)O)c2)c(OC)c1,-1.7,-2.56,-0.13,-2.02,0.579,-2.85,0.677,-2.19,-1.91,-1.77,-0.991,-2,-1.74,-2.59,-1.92,-2.24,-0.321,-1.82,-1.31,-1.3
COc1cccc2cc(-c3nc([C@H]4CC[C@H](C(=O)O)CC4)n4ncnc(N)c34)[nH]c12,-1.19,-1.23,-0.901,-0.715,-0.906,-0.376,-1.5,-1.06,-0.555,-0.68,-1.03,-1.43,-0.417,-0.734,-1.35,-0.871,-0.498,-1.32,-0.428,-1.1
COCCOc1ccc2c(c1)ncn2-c1ccc2cccc(N3CCC(N)CC3)c2n1,0.438,0.28,-0.0541,0.533,0.552,-0.0589,0.541,0.278,0.294,0.715,0.572,-0.241,0.761,-0.666,-0.135,0.656,0.261,1.89,-0.178,0.582
Cc1cc(NC(=O)c2cccc(NC(=O)/C=C/CN(C)C)c2)ccc1Nc1nccc(-c2cccnc2)n1,0.539,0.126,0.0319,-0.31,0.7,0.475,0.574,0.577,0.441,0.691,0.411,0.291,-0.385,0.758,-0.543,0.611,0.48,0.329,0.192,0.503
COc1cc2ncnc(Nc3ccc(F)c(Cl)c3)c2cc1OCCCN1CCOCC1 [Gefitinib (ZD1839)],-0.0997,0.478,-0.24,-1.81,0.407,0.455,-0.997,0.449,0.805,0.777,-0.0695,0.71,-0.973,0.489,0.886,-0.282,0.561,0.792,-0.237,1.02
N[C@@H]1CCCN(c2c(/C=C3\SC(=O)NC3=O)cccc2-c2ccccc2)C1,0.413,0.128,0.524,0.574,0.458,0.554,0.6,0.65,0.417,0.028,0.67,0.734,0.793,0.111,0.27,0.643,0.448,0.109,0.292,0.822
CCN1CCN(Cc2ccc(-c3cc4c(N[C@H](C)c5ccccc5)ncnc4[nH]3)cc2)CC1,-0.293,0.691,-0.0645,-1.52,-0.805,0.18,0.413,0.528,0.642,0.707,0.699,-0.00228,-0.8,0.712,-0.0951,-0.178,0.579,1.3,-0.168,0.695
CC(C)NC[C@@H](C(=O)N1CCN(c2ncnc3c2[C@H](C)C[C@H]3O)CC1)c1ccc(Cl)cc1,-1.22,-0.265,0.691,0.612,-0.852,0.446,-1.48,-0.569,0.914,0.716,-0.0591,-1.27,-0.812,0.803,0.325,-0.804,0.705,-0.883,0.699,-0.318
Cc1ccc(-c2nn(C(C)(C)C)c3ncnc(N)c23)cc1,0.261,0.712,0.813,0.352,0.624,0.491,0.655,0.618,0.587,0.585,0.966,1.09,1.01,0.824,0.489,0.734,0.579,1.46,0.887,0.861
COc1ccc(-c2ccc3c(N4CCOCC4)nc(N4C[C@@H](C)O[C@@H](C)C4)nc3n2)cc1CO,-1.33,-1.55,-0.00892,0.167,-0.839,0.0938,-1.01,-1.75,-1.15,-1.13,-1.31,-1.24,-1.21,-1.5,-1.77,-0.851,-0.119,-2.06,-1.06,-1.69
